# Screen size: about 110,000 compounds; about 230 (0.21%) showed an effect of 50% or more. The list shows a part of the results.
# Target: DPAP1 (Plasmodium falciparum, UniProt Q8IIJ9)
# Test: primary screen, percent inhibition; read by cleavage of a fluorogenic dipeptide substrate; higher = more effect of the substance
# Set-up: species or system P. falciparum D10 trophozoite lysates; single well
# 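Also: 30 min substrate incubation versus DMSO and 10 µM JCP410 controls.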
# DPAP1, sequence (Q8IIJ9 whole entry, looked up): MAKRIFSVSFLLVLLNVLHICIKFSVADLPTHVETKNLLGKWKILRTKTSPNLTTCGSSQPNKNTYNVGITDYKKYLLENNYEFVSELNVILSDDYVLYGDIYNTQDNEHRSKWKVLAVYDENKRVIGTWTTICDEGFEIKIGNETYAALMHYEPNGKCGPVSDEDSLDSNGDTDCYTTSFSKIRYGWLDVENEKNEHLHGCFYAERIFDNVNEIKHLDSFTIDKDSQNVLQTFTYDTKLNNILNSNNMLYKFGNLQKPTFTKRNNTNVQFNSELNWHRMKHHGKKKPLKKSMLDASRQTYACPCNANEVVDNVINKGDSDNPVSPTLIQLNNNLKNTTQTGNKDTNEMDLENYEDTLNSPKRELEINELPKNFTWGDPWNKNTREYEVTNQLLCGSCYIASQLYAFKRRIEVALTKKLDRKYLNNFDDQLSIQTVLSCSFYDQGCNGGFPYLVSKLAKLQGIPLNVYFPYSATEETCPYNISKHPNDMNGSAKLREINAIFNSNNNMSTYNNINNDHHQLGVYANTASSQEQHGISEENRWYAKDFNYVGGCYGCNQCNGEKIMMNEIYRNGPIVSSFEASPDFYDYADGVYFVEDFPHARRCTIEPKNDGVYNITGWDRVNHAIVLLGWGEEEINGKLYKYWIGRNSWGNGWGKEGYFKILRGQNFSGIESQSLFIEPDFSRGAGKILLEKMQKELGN
row,Compound,% Inhibition @ 10 uM [%]
1,CN1CCC(N(C)C2CCSC2)CC1 (stereo not shown),-1.5
2,O=C(O)c1cccc(N2C(=O)C3C4C=CC(C5CC45)C3C2=O)c1 (stereo not shown),1.96
3,Cc1cc(F)ccc1NC(=O)c1c(Br)c(C)nn1C,4.32
4,O=C(NCc1ccccn1)c1ccc(Cl)s1,-0.687
5,CCc1ccc(NC(=O)COc2ccc(Cl)cc2)cc1,-1.22
6,Cc1cc(NC(=O)c2ccc(C(=O)Nc3cc(C)on3)cc2)no1,-0.425
7,O=C(O)c1ccccc1C(=O)NCc1ccccc1Cl,-4.06
8,CCNC(=O)CC1SC(Nc2ccc(C)cc2)=NC1=O (stereo not shown),-0.185
9,Cc1ccccc1NC(=O)c1c(C(=O)O)cccc1[N+](=O)[O-],-6.83
10,OCCN1CCN(CC2CCCCC2)CC1,-1.78
11,Cc1ccc(NC(=O)c2ccc(S(=O)(=O)N3CCCCC3C)cc2)cc1Cl (stereo not shown),5.39
12,COc1ccc(-c2nnc(SCC(=O)NC(C)(C)C)nc2-c2ccc(OC)cc2)cc1,-3.44
13,COc1ccc(C(=O)Nc2ccc(S(=O)(=O)N3CCC(C)CC3)cc2)cc1,3.8
14,Cc1ccc(-c2cn3c(n2)sc2cc(C(=O)N4CCC(C)CC4)ccc23)cc1,18.2
15,O=C(O)CCCC(=O)N1CCN(c2ccccc2)CC1,-4.28
16,CCCNC(=O)C1CCN(S(=O)(=O)c2ccccc2)CC1,0.992
17,CCCCn1nc(-c2ccccc2)c(-c2ccccc2)c(C(=O)OC)c1=O,1.91
18,COc1cccc(OC)c1C(=O)N1CCCCC1C (stereo not shown),-1.28
19,CCc1nnc(SCC(=O)NCCc2ccccc2)c2cc3oc(C)cc3n12,-5.93
20,CS(=O)(=O)N1CCC(C(=O)NCCC2=CCCCC2)CC1,-1.34
21,CCCCOC(=O)c1ccc(NS(C)(=O)=O)cc1,3.01
22,COCCNS(=O)(=O)c1c(C)cc(C)cc1C,-3.44
23,O=C(NC1CCCCCC1)c1ccc(C(=O)NC2CCCCCC2)cc1,0.273
24,CCCc1noc2c1C(=O)CC(C)(C)C2,-2.63
25,Cc1sc(NC(=O)c2ccc(F)cc2)c(CN2CCCCC2)c1C,2.64
26,Cc1ccc(-n2nc3c(=O)n(CCCC(=O)NCc4ccc(OC(C)C)cc4)nc(C)c3c2C)cc1,-1.03

row,Compound,% Inhibition @ 10 uM [%]
1,N#C/C(=C\c1ccc([N+](=O)[O-])cc1)c1nc(-c2ccc(F)cc2)cs1,0.912
2,CN(Cc1ccccc1)Cc1csc2c1CCCC2,1.22
3,CCOC(=O)Nc1ccc(C)cn1,4.35
4,O=C(NCc1ccco1)C1CCCN(c2nnc(-n3cccc3)s2)C1 (stereo not shown),-5.77
5,O=C(NC1CCCC1)c1cnn2c1NC(c1ccc(Br)cc1)CC2C(F)(F)F (stereo not shown),-0.171
6,COCCCNC(=O)C1CCN(C(=O)c2c(C)nn(-c3ccccc3)c2-n2cccc2)CC1,3.4
7,O=C(O)C1CC=CCC1C(=O)Nc1cccc(Cl)c1Cl (stereo not shown),3.92
8,c1ccc(-c2nc3ccncc3[nH]2)cc1,-0.902
9,COc1ccc(CC(=O)NCCc2c(C)[nH]c3ccccc23)cc1,4.11
10,CC(C)(C)NCCC(=O)C1=CCCCC1,-0.197
11,COc1ccc(CN2CCN(Cc3ccccc3F)CC2)c(OC)c1,-3.37
12,COc1ccc(NC(=O)c2cccc(S(=O)(=O)Nc3cccc([N+](=O)[O-])c3)c2)cc1,13.2
13,O=C(/C=C/c1ccccc1)N1CCN(Cc2ccc3c(c2)OCO3)CC1,2.41
14,O=C(NCCCN1CCOCC1)c1ccc(CS(=O)c2ccccc2Cl)o1 (stereo not shown),-0.434
15,C=C(C)CN(CC)Cc1ccc(O)cc1,1.62
16,COc1ccc(C2CC(=O)C(=Cc3c[nH]c4ccccc34)C(=O)C2)cc1 (stereo not shown),0.685
17,O=C(c1ccc2snnc2c1)N1CCN(c2ccccn2)CC1,-3.52
18,Cc1cccc(C(=O)Nc2ccc(CC#N)cc2)c1,5.15
19,O=C(NCCC1=CCCCC1)c1cc(-c2ccncc2)nc2ccccc12,-0.519
20,CC1CCc2c(sc(NC(=O)c3ccccc3Cl)c2C(N)=O)C1 (stereo not shown),-10
21,Cc1ccc2c(CC(=O)Nc3sc4c(c3C(=O)NCc3cccnc3)CCC4)coc2c1C,8.59
22,Cc1ccccc1OCCSc1nc(N(C)C)nc(N(C)C)n1,-5.45
23,CC(=O)c1c(C)nc2c(c1-c1ccc(C)cc1)C(=O)c1ccccc1-2,0.795
24,CCOc1ccccc1C(=O)Nc1cc(C)ccc1C,-9.68
25,CCc1ccc(NC(=O)C(C(C)C)N2C(=O)c3ccccc3C2=O)cc1 (stereo not shown),1.88
26,Cc1cccc(Nc2nc(-c3sc(N)nc3C)cs2)c1,2.7

row,Compound,% Inhibition @ 10 uM [%]
1,CC(=O)NCCOc1cccc2cccnc12,-6.84
2,Cc1ccc(-n2ncc3c(N(CCO)Cc4ccccc4)ncnc32)cc1Cl,0.0904
3,O=C(Nc1nc2c(Cl)cccc2s1)C1CCCC1,4.64
4,Cc1nn(C(C)C(=O)N2CCCCC2)c(=O)c2c1sc1ccccc12 (stereo not shown),-1.6
5,CCCCCCSC1=C(C#N)C(c2ccc(F)cc2)CC(=O)N1 (stereo not shown),0.121
6,CC(=O)N1N=C2CC(C)(C)OCC2C1c1ccccc1 (stereo not shown),-4.12
7,CCOc1cc(-c2cc(C)nc(N)c2C#N)ccc1O,-6.74
8,O=C(Nc1nnc(C2CCCCC2)s1)c1ccccc1Br,1.13
9,Cc1ccc(Cn2c(C(=O)O)c(CNCCc3ccc(Cl)cc3)c3ccc(C)cc32)cc1,8.58
10,COc1ccc(C2=NOC(C(=O)NCCc3ccccc3)C2)cc1 (stereo not shown),-5.25
11,COc1cccc(CNC(=O)C2CCCN(S(=O)(=O)c3c(C)nc(O)nc3O)C2)c1 (stereo not shown),1.16
12,COc1ccccc1/C=C1/SC(Nc2cccc(C)c2)=NC1=O,9.82
13,Cc1nn(C)c2c1c(-c1ccccc1)cc(=O)n2Cc1cccc(C(F)(F)F)c1,-2.41
14,COC(=O)c1c(N)sc2c1CCCCC2,6.49
15,CC1CCCCN1CCNC(=O)Cn1ncc2c(=O)oc3ccccc3c21 (stereo not shown),2.85
16,CC(C)C[C@H](NC(=O)c1ccc(N2CCN(C)CC2)cc1)C(=O)NCCN(CC(C)C)CC(C)C,-9.15
17,NC(=O)c1nn2c(C(F)(F)F)cc(-c3ccco3)nc2c1Cl,-1.2
18,CCOC(=O)N1CCN(C(=O)c2cc(OC)cc(OC)c2)CC1,-6.44
19,Nc1ccc(Cc2ccc(N)c(C(=O)O)c2)cc1C(=O)O,17.4
20,Cc1cc2n(n1)c1cc(C)nn1c1cc(C)nn21,-0.744
21,CC(C)N(Cc1nc(-c2ccccc2)no1)C(=O)C12CC3CC(CC(C3)C1)C2,-0.352
22,Cc1nn(C)c2nc(C(=O)NCc3ccc(F)cc3)cc(C3CC3)c12,-0.92
23,Cc1nc2ccc(S(=O)(=O)N(C)CC(=O)NC3CCN(Cc4ccccc4)CC3)cc2s1,4.33
24,Clc1cccc(-c2nnc(CN3CCC(Cc4ccccc4)CC3)o2)c1,-2.23
25,COc1cc(C)c2c(=O)c(-c3nc(C)cs3)coc2c1,-3.45
26,COc1ccc(-c2[nH]nc3c2C(c2cc(OC)c(OC)c(OC)c2)CC(=O)O3)cc1 (stereo not shown),9.03

row,Compound,% Inhibition @ 10 uM [%]
1,CC(Nc1cc(=O)n(C)c(=O)[nH]1)c1ccccc1 (stereo not shown),-0.267
2,CCOc1ccc2c(c1)nc(SCc1ccccc1)n2C,-3.14
3,COc1ccc(OCC(=O)N2CCN(C3CCN(Cc4ccccc4)CC3)CC2)cc1,-1.6
4,CN1CCCCc2c([nH]c3ccccc23)C1=O,-2.77
5,Nc1nonc1NC(=O)CSc1nnc2c(n1)[nH]c1ccccc12,-1.24
6,COc1cc(C(=O)N(Cc2nc(-c3ccccc3)no2)C(C)C)cc(OC)c1OC,0.521
7,Cc1ccccc1OCC(=O)Nc1ccc(Oc2ccc3c(c2)C(=O)NC3=O)cc1,2.22
8,Cc1cc(C(=O)NCCc2ccc(S(N)(=O)=O)cc2)no1,-2.65
9,CCOC(=O)c1c(NC(=O)C(F)(OC)C(F)(F)F)sc(C(=O)N2CCCCC2)c1C (stereo not shown),2.18
10,Cc1ccc2onc(CNC(=O)NC3CCN(Cc4ccccc4)CC3)c2c1,-0.544
11,COc1ccc(S(=O)(=O)N[C@@H](CC(C)C)C(=O)NCC#N)cc1OC,-1.41
12,CCOC(=O)c1ccc(NC(=O)c2cccs2)cc1,-3.72
13,CCN(C(=O)/C=C/c1ccc(C(C)C)cc1)c1ccccc1,1.63
14,CCOC(=O)N1CCN(CC(O)COc2ccc(OC)cc2C(C)(C)C)CC1 (stereo not shown),0.146
15,O=C1C(c2ccc(F)cc2)N(CC2COc3ccccc3O2)C(=O)CN1C1CCCCC1 (stereo not shown),4.47
16,O=C(CCCn1sc2ccccc2c1=O)NCCc1ccc(Cl)cc1,-2.84
17,COc1ccc2oc(C)c(C(=O)c3ccc(C)cc3)c2c1,-3.03
18,CC1CCN(C(=O)c2cccc3c2-c2ccccc2C3=O)CC1,-10.6
19,CCOc1cc(-c2noc(N)c2C#N)cc(OCC)c1OCC,3.96
20,COc1ccc(-c2[nH]nc3c2C(c2cccc(F)c2F)C(C#N)=C(N)O3)cc1OC (stereo not shown),5.18
21,CCOC(=O)c1c(-c2ccc(Cl)cc2)csc1/N=C/C1C(=O)CC(C)(C)CC1=O,-7.2
22,COc1cc(C(=O)Nc2sc3c(c2C(N)=O)CCCC3)cc(OC)c1OC,5.54
23,COc1cc2ncc(S(=O)(=O)c3ccc(C)cc3)c(N3CCCC3)c2cc1OC,-3.86
24,O=C(NC1=NCCS1)c1cc(-c2ccc3c(c2)OCO3)nc2ccccc12,-1.42
25,Cc1nccc2nc(O)c(C(=O)NC3CCN(Cc4ccccc4)CC3)cc12,3.93

# From publication PMC6919601, “Identification of Plasmodium dipeptidyl aminopeptidase allosteric inhibitors by high throughput screening” (PLoS ONE, 2019)
